Measured values reported in the RNAGym collection of RNA variant scans (doi:10.1093/nar/gkz1192).
Read counts are not given, so values of variants with three or more changes are uncertain.

B1: CPEB3 Ribozyme (parent)
chain: UAACAGGGGGCCACAGCAGAAGCGUUCACGUCGCAGCCCCUGUCAGAUUCUGGUGAAUCUGCGAAUUCUGCUGUAUAUCUC

Variants of: B1
Experiment: self-cleavage, relative activity (ratio to wild type); higher = more cleavage; in vitro, sequencing
Outline: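 For each CPEB3 ribozyme variant, relative activity is its cleaved/total read fraction divided by the unmutated ribozyme's. Barcoded error-prone PCR libraries were transcribed by T7 RNA polymerase (5 hours, 37°C) and held in DNase I for 15 min before an EDTA stop, with cleavage occurring throughout. Template-switching reverse transcription and Illumina sequencing were used to read the RNAs. A 5-read minimum applied, and results are the mean of three batches.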
G6A A20G U49A showed a self-cleavage of 0.09.
G6A A20U C38U G52A showed a self-cleavage of 0.05.
G6A A20U U51C showed a self-cleavage of 0.41.
G6A A20U U60A U67C U69C U76G showed a self-cleavage of 0.04.
With G6A A21C A47U A56U A64U U67C the self-cleavage was 0.07.
With G6A A21C C34G the self-cleavage was 0.07.
For G6A A21G A35G U41C U67C, the self-cleavage was 0.05.
With G6A A21G C39A U54C the self-cleavage was 0.31.
For G6A A21G U25C A28G, the self-cleavage was 0.48.
Variant G6A A21G U26A U31C A64U U78A has a self-cleavage of 0.13.
G6A A21G U26C A45G A56G C68G U76C gave a self-cleavage of 0.07.
With G6A A21G U31G A56U A57G the self-cleavage was 0.07.
G6A A21G U60A showed a self-cleavage of 0.03.
For G6A A28G C34U G46A U54C A65G U78A, the self-cleavage was 0.09.
In the case of G6A A28G G33A A45U U49C U74C, the self-cleavage is reported as 0.04.
G6A A28G G53A A64U U67C U76C gave a self-cleavage of 0.04.
With G6A A28G U31A U67C the self-cleavage was 0.13.
G6A A28G U69C showed a self-cleavage of 0.17.
Variant G6A A28U A35U U41A has a self-cleavage of 0.23.
Variant G6A A28U C34U U48C A56G has a self-cleavage of 0.05.
Work on G6A A28U U67A yielded a self-cleavage of 0.07.
G6A A35C A47G U54A U58C U66C U72A gave a self-cleavage of 0.36.
Work on G6A A35G C68U U80A yielded a self-cleavage of 0.38.
G6A A35U U48C U54A U60A A65G U80A showed a self-cleavage of 0.09.
In the case of G6A A35U U67C U80C, the self-cleavage is reported as 0.36.
Work on G6A A35U U76C yielded a self-cleavage of 0.11.
In the case of G6A A45G U58C A64G U72A U80C, the self-cleavage is reported as 0.03.
For G6A A47G C50A U60C, the self-cleavage was 0.06.
G6A A47G U69A C71A gave a self-cleavage of 0.31.
Work on G6A A56G U58A yielded a self-cleavage of 0.31.
Variant G6A A56G U76C A77U has a self-cleavage of 0.08.
Variant G6A A56G U78C has a self-cleavage of 0.27.
G6A C11G A13U A21U C29U A35G gave a self-cleavage of 0.22.
Work on G6A C11G A18C A20G U58C A64U yielded a self-cleavage of 0.06.
Work on G6A C12U U41C U72C yielded a self-cleavage of 0.76.
Work on G6A C12U U72C yielded a self-cleavage of 0.72.
With G6A C23U A65U the self-cleavage was 0.07.
With G6A C23U U49A U78C the self-cleavage was 0.07.
For G6A C27G G61A, the self-cleavage was 0.16.
G6A C50G A75U showed a self-cleavage of 0.14.
In the case of G6A G7A C32A U49C A56U, the self-cleavage is reported as 0.24.
G6A G7U A13G A15U U49C gave a self-cleavage of 0.31.
Variant G6A G8A A28G C40U U54C U67C has a self-cleavage of 0.11.
For G6A G8U U72A U80C, the self-cleavage was 0.23.
Work on G6A G9A U31A A56G U69C yielded a self-cleavage of 0.06.
G6A G9C U58A gave a self-cleavage of 0.27.
G6A G16C A35C U49C gave a self-cleavage of 0.19.
With G6A G22U A35U U48C U72A the self-cleavage was 0.05.
Work on G6A G22U U25C U41A yielded a self-cleavage of 1.08.
For G6A G24A U25C C44U A47G U54C U72A, the self-cleavage was 0.15.
For G6A G24A U54C U66A, the self-cleavage was 0.11.
Variant G6A G30A G42A has a self-cleavage of 0.06.
In the case of G6A G33A U49C, the self-cleavage is reported as 0.25.
Work on G6A G36U A45G A56G U60C yielded a self-cleavage of 0.09.
Variant G6A G63A U72A has a self-cleavage of 0.44.
For G6A G63U U69A, the self-cleavage was 0.31.
For G6A U25C A28G G52A U60A U72C U78C, the self-cleavage was 0.17.
Work on G6A U25C U41C A45U U49C A75G yielded a self-cleavage of 0.06.
G6A U26A A45G gave a self-cleavage of 0.11.
For G6A U26A A57G U69G, the self-cleavage was 0.3.
Variant G6A U26A U48C A56G A64U has a self-cleavage of 0.11.
In the case of G6A U26A U48C U58C A65G U67A, the self-cleavage is reported as 0.06.
With G6A U26C A35G U48C the self-cleavage was 0.18.
In the case of G6A U26C A56U, the self-cleavage is reported as 0.25.
G6A U26C C44G U49C U66C A77G showed a self-cleavage of 0.06.
For G6A U26C U58C U80C, the self-cleavage was 0.26.
G6A U26G G53A U72A showed a self-cleavage of 0.06.
For G6A U31A A45U U67G, the self-cleavage was 0.05.
For G6A U31A U43A A57G U58C A75G, the self-cleavage was 0.06.
G6A U31A U51A A56U gave a self-cleavage of 0.32.
With G6A U31C G33U A35U U49C U54C A57U the self-cleavage was 0.05.
G6A U31C U43G U49C U51A U58G U72C gave a self-cleavage of 0.04.
With G6A U31G G55A A56U A77U the self-cleavage was 0.06.
In the case of G6A U41A G52A U72A U74C A75C, the self-cleavage is reported as 0.26.
With G6A U41A U43G U51C the self-cleavage was 0.22.
G6A U41A U48C showed a self-cleavage of 0.32.
In the case of G6A U41C U54A G61U U72A, the self-cleavage is reported as 0.2.
Variant G6A U43A A75U has a self-cleavage of 0.14.
With G6A U48A C59U the self-cleavage was 0.27.
G6A U49C A57G showed a self-cleavage of 0.16.
G6A U49C A65G U69A gave a self-cleavage of 0.17.
Variant G6A U51A G61U C62U U67C U80C has a self-cleavage of 0.23.
In the case of G6A U66C U78C, the self-cleavage is reported as 0.14.
With G6A U66C U80A the self-cleavage was 0.21.
Work on G6A U74C U76C yielded a self-cleavage of 0.57.
In the case of G6A U76C U80A, the self-cleavage is reported as 0.27.
For G6C A13G A15G U25A U41C U66C U76A, the self-cleavage was 0.04.
G6C A13G U25A U41C A56U U80C showed a self-cleavage of 0.04.
Work on G6C A13U A28U yielded a self-cleavage of 0.22.
In the case of G6C A18G U48C A65G, the self-cleavage is reported as 0.2.
G6C A35U G52C C59A gave a self-cleavage of 0.16.
Work on G6C G8A A64G U69C U72C yielded a self-cleavage of 0.09.
For G6C G8U A35U G53A U54C U58C U66A, the self-cleavage was 0.05.
For G6C G8U A35U U58C U66A U74C, the self-cleavage was 0.25.
In the case of G6C G8U U54C A57G U74A, the self-cleavage is reported as 0.08.
G6C U25G A47G showed a self-cleavage of 0.27.
With G6C U26C A57U U78C the self-cleavage was 0.21.
G6C U26G U72A gave a self-cleavage of 0.07.
Variant G6C U54C U60C has a self-cleavage of 0.32.
Work on G6U A13G U48A A65U yielded a self-cleavage of 0.15.
Work on G6U A13U C59A U67A U74C yielded a self-cleavage of 0.05.
Work on G6U A13U U43C yielded a self-cleavage of 0.16.
For G6U A13U U60C G70U, the self-cleavage was 0.18.
For G6U A15G A20G, the self-cleavage was 0.11.
Work on G6U A15G A64U U67G yielded a self-cleavage of 0.34.
With G6U A15G U54C A64G U66C the self-cleavage was 0.04.
Work on G6U A15U A56G A77U yielded a self-cleavage of 0.09.
Variant G6U A15U C29U A45G U58A has a self-cleavage of 0.13.
Work on G6U A15U U25C U43C U58C yielded a self-cleavage of 0.24.
Variant G6U A15U U51A G52U U58A has a self-cleavage of 0.09.
G6U A15U U80C gave a self-cleavage of 0.33.
G6U A18G U43A U78C showed a self-cleavage of 0.41.
With G6U A18G U51C C71A the self-cleavage was 0.04.
In the case of G6U A18U U54C A75G U78C, the self-cleavage is reported as 0.05.
In the case of G6U A20G A45U A64U U66C, the self-cleavage is reported as 0.08.
G6U A20G A56U showed a self-cleavage of 0.34.
With G6U A20G U26A A45C A56G the self-cleavage was 0.24.
With G6U A20G U26C A35G U51C U76C the self-cleavage was 0.07.
G6U A21G U26C U67C U80C gave a self-cleavage of 0.13.
In the case of G6U A21G U58C U60C C62U U78G, the self-cleavage is reported as 0.05.
Work on G6U A28G U41C A45G A57G U67C U80C yielded a self-cleavage of 0.11.
Variant G6U A35G U51A has a self-cleavage of 0.45.
With G6U A45G U48G the self-cleavage was 0.18.
With G6U A47G U49A the self-cleavage was 0.09.
For G6U C11A A18G U31C U72C, the self-cleavage was 0.23.
G6U C11U U74C gave a self-cleavage of 0.1.
For G6U C12U A18G U25C U54C U69A, the self-cleavage was 0.05.
Work on G6U C32A A77G yielded a self-cleavage of 0.14.
In the case of G6U G8U A28U U48A, the self-cleavage is reported as 0.08.
With G6U G9A A18U G46A U60C C62U U76C the self-cleavage was 0.04.
G6U G16A U72A gave a self-cleavage of 0.34.
For G6U G19U A28U A64G U74A, the self-cleavage was 0.28.
Variant G6U G24A A57G U72C U80C has a self-cleavage of 0.25.
With G6U G24U U25G the self-cleavage was 0.33.
In the case of G6U G42A A64U, the self-cleavage is reported as 0.09.
G6U U25C A28G A35U G63U showed a self-cleavage of 0.06.
G6U U25C A45G U66A A75U gave a self-cleavage of 0.06.
For G6U U26C A28U U31A U48C C71A, the self-cleavage was 0.09.
For G6U U26C U49C U67A, the self-cleavage was 0.06.
In the case of G6U U31C C37U U54C U69G, the self-cleavage is reported as 0.06.
In the case of G6U U31C U54C, the self-cleavage is reported as 0.07.
G6U U41C A56U C62U U72C U76A showed a self-cleavage of 0.04.
G6U U43C A57G gave a self-cleavage of 0.08.
For G6U U43C G73C, the self-cleavage was 0.27.
G6U U60C U72A showed a self-cleavage of 0.14.
G6U U66C A75G gave a self-cleavage of 0.13.
G7A A13C A15G U25C A57G U78C gave a self-cleavage of 0.37.
G7A A13G A15U U26C U51C U54C C62G showed a self-cleavage of 0.04.
G7A A13G A20G U41C C62U showed a self-cleavage of 0.06.
With G7A A13G A35G A45G U67C U78C the self-cleavage was 0.06.
G7A A13G A64G gave a self-cleavage of 0.16.
For G7A A13G C37U, the self-cleavage was 0.22.
For G7A A13G U43A U51C G63A U80C, the self-cleavage was 0.06.
For G7A A13U A15U U49C A57C, the self-cleavage was 0.07.
With G7A A13U A28G U78C the self-cleavage was 0.06.
Work on G7A A13U U25C U41C yielded a self-cleavage of 0.17.
With G7A A13U U76C U80A the self-cleavage was 0.05.
G7A A15C U25C U26G U49C A56G U67A showed a self-cleavage of 0.
G7A A15G A18G A20U U26A A65G U78C showed a self-cleavage of 0.04.
For G7A A15G A18G G24U U25C U26C, the self-cleavage was 0.34.
With G7A A15G U25C A47G U54A the self-cleavage was 0.06.
G7A A15G U48A A65G showed a self-cleavage of 0.39.
G7A A18G A20G U67C showed a self-cleavage of 0.07.
G7A A18G A35U G36A A75U gave a self-cleavage of 0.18.
With G7A A18G G24A U48C U49C U69C the self-cleavage was 0.06.
G7A A18G U72C showed a self-cleavage of 0.08.
With G7A A18U A20U A45G U49A A64U C68G the self-cleavage was 0.03.
